Experimental data taken from article PMC10668032.
Some of the results follow. At the low end of the ranking, values are background and their order means little.

Each sequence was assayed against SIX1 homeodomain (reference allele) (UniProt Q15475) (assay: universal protein binding microarray). Conditions: Universal all-10-mer PBM (8x60K, AMADID 030236), 300 nM GST-tagged protein, Alexa Fluor 488 anti-GST; buffer, salt, pH and temperature not stated; high values mean tight binding; most listed sequences are background and not binding sites; double strand, one strand shown.
With ATCTATCC the binding signal was 0.372 E-score.
With CCGCGTTA the binding signal was -0.0184 E-score.
ATTCCGTA gave a binding signal of 0.0707 E-score.
GTCTTTAA showed a binding signal of -0.025 E-score.
AGGGTGTG was tested, and the binding signal was 0.125 E-score.
Sequence CTCCGAGA has a binding signal of -0.00203 E-score.
For TGGCTCAA, the binding signal was 0.0458 E-score.
For AAATTACC, the binding signal was -0.176 E-score.
TTCATGAA was tested, and the binding signal was -0.206 E-score.
Sequence GACGCAGC has a binding signal of -0.0597 E-score.
With AGTCCTCG the binding signal was -0.236 E-score.
In the case of CCGCCTAA, the binding signal is reported as -0.102 E-score.
Work on ACTTCCCC yielded a binding signal of -0.218 E-score.
Sequence ATACTTAG has a binding signal of 0.205 E-score.
Work on AAACCTGT yielded a binding signal of -0.0785 E-score.
CCCCATCA was tested, and the binding signal was 0.152 E-score.
For CAGTGTGA, the binding signal was 0.133 E-score.
Sequence AAGCATTC has a binding signal of -0.162 E-score.
Work on AAGAATGG yielded a binding signal of -0.139 E-score.
Work on TAATGAAA yielded a binding signal of -0.336 E-score.
With CTCATCGA the binding signal was 0.0474 E-score.
For TACATGTA, the binding signal was 0.176 E-score.
CTTTGATA gave a binding signal of 0.331 E-score.
GGCCGCAC showed a binding signal of -0.287 E-score.
With CGATTGAG the binding signal was -0.117 E-score.
In the case of CAACGGGA, the binding signal is reported as -0.17 E-score.
In the case of AGAGGTCG, the binding signal is reported as -0.0976 E-score.
Work on CAAATAAG yielded a binding signal of -0.251 E-score.
In the case of CGCCGTTA, the binding signal is reported as 0.051 E-score.
GGAGGTAC was tested, and the binding signal was -0.205 E-score.
Work on AACGGATA yielded a binding signal of 0.421 E-score.
AACCGCTG gave a binding signal of -0.0859 E-score.
With ACACAGTG the binding signal was -0.052 E-score.
With CTCTTGAA the binding signal was -0.0709 E-score.
ACGCGAGG was tested, and the binding signal was -0.14 E-score.
Sequence CGCACGAA has a binding signal of 0.00358 E-score.
For ACATTGTC, the binding signal was -0.0312 E-score.
ACACATAC showed a binding signal of 0.164 E-score.
CTTCATGA showed a binding signal of 0.077 E-score.
Work on CACTCCTA yielded a binding signal of -0.0883 E-score.
ATCAGTTG showed a binding signal of 0.253 E-score.
Work on CACGCAAG yielded a binding signal of 0.115 E-score.
GATTAGAA gave a binding signal of 0.184 E-score.
Sequence ACCGAGGA has a binding signal of 0.0936 E-score.
GCCGGTTA gave a binding signal of 0.0166 E-score.
With ACCATCAT the binding signal was -0.0916 E-score.
With CAGGGTTC the binding signal was -0.0102 E-score.
For GTAGGCCA, the binding signal was 0.17 E-score.
For GTCCAGTA, the binding signal was -0.022 E-score.
For ATAGATCG, the binding signal was 0.29 E-score.
ACGTGTAC gave a binding signal of -0.115 E-score.
With GGCGATTA the binding signal was 0.0782 E-score.
Sequence ACGGAACA has a binding signal of -0.0865 E-score.
For CTGGCATC, the binding signal was 0.144 E-score.
For GTCTACAC, the binding signal was 0.152 E-score.
Work on AGGACAGA yielded a binding signal of -0.0123 E-score.
In the case of TGATAGAA, the binding signal is reported as 0.0615 E-score.
With CGCACGCA the binding signal was -0.11 E-score.
Work on GTCGCGAC yielded a binding signal of 0.0418 E-score.
Work on CGCTGTAA yielded a binding signal of -0.00013 E-score.
With AACGCCCG the binding signal was -0.00791 E-score.
With ATCTATAA the binding signal was 0.129 E-score.
Sequence AAATTCGG has a binding signal of 0.0895 E-score.
In the case of AACGGGCG, the binding signal is reported as -0.196 E-score.
Work on CGCCGGTC yielded a binding signal of -0.155 E-score.
With AGGGGTAT the binding signal was 0.451 E-score.
Sequence CACGCTTA has a binding signal of -0.089 E-score.
Sequence ACACATCG has a binding signal of -0.0745 E-score.
CTTCCTCA showed a binding signal of 0.0998 E-score.
With GCCCTCCC the binding signal was -0.0271 E-score.
AAGATTAA gave a binding signal of 0.0139 E-score.
Sequence CGCGCACC has a binding signal of -0.246 E-score.
CAAGCAAC gave a binding signal of -0.0422 E-score.
CCATCGGC was tested, and the binding signal was -0.152 E-score.
In the case of TAGCTATA, the binding signal is reported as 0.219 E-score.
AAGATATA was tested, and the binding signal was 0.28 E-score.
CGTGCCCC showed a binding signal of -0.0646 E-score.
Work on GAGATAAC yielded a binding signal of 0.00349 E-score.
Sequence GTGTACGA has a binding signal of 0.143 E-score.
AGCCATCG was tested, and the binding signal was 0.173 E-score.
TCTTGTAA was tested, and the binding signal was -0.0871 E-score.
For AGGCCCTC, the binding signal was -0.203 E-score.
In the case of CCGACCCC, the binding signal is reported as -0.0364 E-score.
With CAGATTCG the binding signal was -0.0198 E-score.
Sequence CGGCAGTC has a binding signal of -0.0341 E-score.
Sequence TCGCGACA has a binding signal of 0.193 E-score.
